# Source: PMC12136788
# The other results are listed elsewhere or left out.
# T1: UNK ZnF1-6 (called full-length) (human, UniProt Q9C0B0 30-357)
# T1 sequence: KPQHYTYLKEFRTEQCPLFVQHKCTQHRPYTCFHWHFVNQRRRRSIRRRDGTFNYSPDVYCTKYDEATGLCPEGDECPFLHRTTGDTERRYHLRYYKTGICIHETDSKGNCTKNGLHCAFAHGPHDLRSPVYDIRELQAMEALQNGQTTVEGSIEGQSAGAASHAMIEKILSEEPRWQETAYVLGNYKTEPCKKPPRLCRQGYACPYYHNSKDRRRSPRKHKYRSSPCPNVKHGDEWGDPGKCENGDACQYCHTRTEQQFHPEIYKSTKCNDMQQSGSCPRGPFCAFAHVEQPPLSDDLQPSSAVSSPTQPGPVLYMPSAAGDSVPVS
# B1: ENSG00000120802:stop:overlap|stop_codon|ENSG00000120802|stop_codon|NA|stop_codon (ssRNA)
# RNA: GGGAGUUCUACAGUCCGACGAUCGUGGAACAUUAUUUGGAGGAGAAGUAUGCAAAGUAAUUAAAAAGCGUGGAAAUAAACACUAGUAAAAUUAAGGACAAAAAGACAUCUAUCUUAUCUUUCAGGUACUUUAUGCCAACAUUUCAACAGAGGAUUGAGCAUCA
# B2: chr4:175634378:175634624:-|3pUTR|ENSG00000150625|msi1|FALSE|unique (ssRNA)
# RNA: GGGAGUUCUACAGUCCGACGAUCUUUCUUAUGUUUUGAAAAGAAAAUAGCUUUUUAUACUUUUUAGUUUUGAUUUCGGUAACUAGUUUAACUACAGGUAACCUUCAAAGGGACCAUUGUACAUUAUGAACAAUAGAUAGAGAUCAACAGAGGAUUGAGCAUCA
# B3: chr6:15520333:15520434:+|3pUTR|ENSG00000008083|unk|FALSE|unique (ssRNA)
# RNA: GGGAGUUCUACAGUCCGACGAUCCUUGCUGUAGGAUUCAAGCUGUCUUUGCACUAGCUCUAAAGAAGAUUUUCUUCUGGUUUUAGAGAACUAAUUUUGUUUUAGCAUUAAACUGUUGAACUUUUUUUUGUACUUAGAAAACCUCAACAGAGGAUUGAGCAUCA
# B4: chr14:92688591:92688692:+|3pUTR|ENSG00000100599|msi1|FALSE|unique (ssRNA)
# RNA: GGGAGUUCUACAGUCCGACGAUCUCCCCAUGAGUCCCCCACACCCACCCCAUCCUCGGUCUUUGCAAAGAAGGGCCCGAGCUUAGUUUCCCCAGGACUGGCCUAGGAAGGAGCACCGGCCACAGCUGCUCCCCGUGCCACUCACAACAGAGGAUUGAGCAUCA
# B5: ENSG00000175727:stop:overlap|stop_codon|ENSG00000175727|stop_codon|NA|stop_codon (ssRNA)
# RNA: GGGAGUUCUACAGUCCGACGAUCAGCUGCCAGAGCAGGCGUCCAAGGCUGUCACCAGGAUUGGCAAGAGAUUGGGAGAGUCCUAGCUGCUUAGCUGGCAUGUGGCCGCAUGAGAUGCCAGGAGACCCUUCCCUGCCCAUGGAGCAACAGAGGAUUGAGCAUCA
# B6: chrX:120258281:120258382:+|3pUTR|ENSG00000177485|msi1|total|mutant (ssRNA)
# RNA: GGGAGUUCUACAGUCCGACGAUCUGUACAAUCUUCCCUGUCAUGACUUUAAGUUCUACUUUUCAUUAACCAUGGCCUGAUAUCCGUUCUCCGAGCUUCUUGUGGCAAAAAUAAAAUGAUUUAAUUCUGAUGUUUGAGUGCGUGCAACAGAGGAUUGAGCAUCA
# B7: chr2:160273923:160274028:-|3pUTR|ENSG00000153250|unk|FALSE|unique (ssRNA)
# RNA: GGGAGUUCUACAGUCCGACGAUCGGGCUUUUAAAAGGUAGUCAAUAAAAGUUGCUGAAAUUUUGGCUUUUUUAAAUAUGUAGUAGGUGUUUUUAAUGAUUUUUCACAUAAUGUGUAAGGUAGUGAAAUGCAAGAAGGGAAAAACAACAGAGGAUUGAGCAUCA
# B8: chr7:139306712:139306813:+|3pUTR|ENSG00000157741|msi1|total|mutant (ssRNA)
# RNA: GGGAGUUCUACAGUCCGACGAUCAUCUGGGGCUUGCCCUUGGAUUUCACUUGUUAAACACCCUCAAACUUAAAAGAAGAAAACCGAUCUCCAGCUGGUGAAAAUUUUGUGCCCCAAAUAAUAUAUUAAUCCAAGUCUACCAAGCAACAGAGGAUUGAGCAUCA
# B9: chr8:58582127:58582250:+|3pUTR|ENSG00000137575|unk|FALSE|bound_elsewhere (ssRNA)
# RNA: GGGAGUUCUACAGUCCGACGAUCUUCAUAUUACUUUAGUUCUAUAGCAUACUUGCAUCUUUAACAUGCUAUCAUAGUACAUUUAGAAUGAUUGCCUUUGAUUUUUUUUUUAAAUUCUGUGUGUGUGUGUGUAAAAUGCCAAUUCAACAGAGGAUUGAGCAUCA
# B10: ENSG00000070961:be:win_4901|3pUTR|ENSG00000070961|bound_else_gene|NA|bound_elsewhere_windowed (ssRNA)
# RNA: GGGAGUUCUACAGUCCGACGAUCCAGUGCAUCAGUCUGUUCUCUUUGACCACAAUUGGAAUACAUUUCAAGAUGGUAACAGCCCCAUGAAGUACCGCUUUAAUUCCUUGCUGGUAAUCUAAUAGAAUCAGAUUAAGAAAAUUACAACAGAGGAUUGAGCAUCA
# B11: chr10:110898111:110898227:+|3pUTR|ENSG00000150593|unk|FALSE|bound_elsewhere (ssRNA)
# RNA: GGGAGUUCUACAGUCCGACGAUCAUAAGAACUCUUGCAGUCUUAGAUGUUAUAAAAAUAUAUAUCUGAAUUGUAAGAGUUGUUAGCACAAGUUUUUUUUUUUUUUUUUUUUAAGCACUUGUUUUGGGUACAAGGCAUUUCUGACAACAGAGGAUUGAGCAUCA
# B12: chr3:160434497:160434598:+|3pUTR|ENSG00000113810|msi1|FALSE|bound_elsewhere (ssRNA)
# RNA: GGGAGUUCUACAGUCCGACGAUCUUUAUGAUAGGUUUAUCCGGGUACUAAAUGCAUUUCAACUUGAUAGUUUCAACUUAUGAUAGGUUUACCAGGAUGUAGUCCCACUGUUGAGGAGCAUCUAUUUAGGGGUUAAUUACUUUACAACAGAGGAUUGAGCAUCA
# B13: chr5:113019263:113019364:+|3pUTR|ENSG00000172795|msi1|FALSE|unique (ssRNA)
# RNA: GGGAGUUCUACAGUCCGACGAUCCUCAACUGUGAAUGAAAUUUAGAAAGAUAAUUCUUCAGCAGUUGGUUGAUUAGAUGGGUUAGUGCUUUUGGAAUAUAUAACAGUAGACUUGUAUUCUUUAUGCACUAUACAUAUGAUACGCAACAGAGGAUUGAGCAUCA
# B14: chr11:95167508:95167609:-|3pUTR|ENSG00000149212|unk|FALSE|unique (ssRNA)
# RNA: GGGAGUUCUACAGUCCGACGAUCAAUAAUGGAGACUGAAUGAGGCGGUUUGUAUUAAAUUAUAUGCCAUGAAGUGUUCAUUUUAGCUUUAACCUAAUUAUGACUGUACCACCAUGAAGUACAGAAUGAAAAAUUAUAUAUAUGCAACAGAGGAUUGAGCAUCA
# B15: chr19:10133403:10133440:-|3pUTR|ENSG00000130816|msi1_unk|total|mutant (ssRNA)
# RNA: GGGAGUUCUACAGUCCGACGAUCUUUUUUAUUAUGCAUUAUAUCAAAUCUACCACUGUAUGAGUGGAAAUUAAGACUUUAUGCCGUUUUUAUAUGUUGUAAUAUUUCUUCAAAUAAAUCUCUCCUAUAAACCACCCUGGGUGGCAACAGAGGAUUGAGCAUCA
# B16: chr4:41955281:41955382:+|3pUTR|ENSG00000109133|msi1|FALSE|unique (ssRNA)
# RNA: GGGAGUUCUACAGUCCGACGAUCGUAGGGGGAGGAGUUGUGGGGGAAUAAUGUGCAUUUCAGUCUCAACGCAUAGAUAAAUUUAGGGGAAUUGGAUGUAUUAUUCAACUUUGAUUUGGGUUGUAAAAUGUGUUAAAUCCUGUUCAACAGAGGAUUGAGCAUCA
# B17: chr2:110123602:110123703:-|3pUTR|ENSG00000144061|unk|FALSE|unique (ssRNA)
# RNA: GGGAGUUCUACAGUCCGACGAUCAUCCUCCACGAUUACGUGAAUAAAAUGAUGGAACCAAAAAUCACUGUCACUUUACAACUUAGGUUUUACUCUUUUCUUUCUACAGACCAUAUUUUUAAAGAAAUGUUUAUACAAUAAUUUCAACAGAGGAUUGAGCAUCA
# B18: ENSG00000107863:be:win_3451|CDS|ENSG00000107863|bound_else_gene|NA|bound_elsewhere_windowed (ssRNA)
# RNA: GGGAGUUCUACAGUCCGACGAUCGACUGCCCACCAGCUCAUACUAAUCGGUAUAUUCCAUUAAUAGUUGACAUAUGUUGCAAAUUAGUUGAAGAAAGAGGUCUUGAAUAUACAGGUAUUUAUAGAGUUCCUGGAAAUAAUGCACAACAGAGGAUUGAGCAUCA
# B19: chrX:46853785:46853899:+|CDS|ENSG00000102218|unk|total|mutant (ssRNA)
# RNA: GGGAGUUCUACAGUCCGACGAUCCAUCAUUGAGUCUUCCUCAAAUAUCAAAUUUGGAUGUUUUCAAUGGUACUAUCCUGAAUCCGCUUUCCAGUUCAAAGAUGCAGGGCUAAGUAUCUUCAACAAUACAUGGAGUAACAUUCACAACAGAGGAUUGAGCAUCA
# B20: chr2:25232207:25232317:-|3pUTR|ENSG00000119772|unk|total|mutant (ssRNA)
# RNA: GGGAGUUCUACAGUCCGACGAUCGGUGAGGGCCCGACGGGCAGGUGCUUGCCUGGGCCGAUGGGGUGCCGAUAUGUGGCAUACCGAGAUAUAUAUUUUAUAAUGGGAGGGGGGAUGGCACCUCCUGGGACUGGCCGAGCUGGGCAACAGAGGAUUGAGCAUCA
# B21: ENSG00000107951:stop:overlap|stop_codon|ENSG00000107951|stop_codon|NA|stop_codon (ssRNA)
# RNA: GGGAGUUCUACAGUCCGACGAUCUGCCACGUUCAAACAAGCAGCUUUUUGAAUUACUUUGUUAUGCAGAAAGUGUAAGUUUUUAGGUGUACCUCAACUUUUAGAACUAUGUAUUUUUUUAUGAACAAUAAAGAUUCCUGUAAACAACAGAGGAUUGAGCAUCA
# B22: chr17:4937608:4937709:-|3pUTR|ENSG00000108528|msi1|FALSE|unique (ssRNA)
# RNA: GGGAGUUCUACAGUCCGACGAUCAAGCGUCUCUUCCUCAGUGGCUGAAGCGGCCGGGGGCUCCCACUCGCCUGCUGCGCCUAUAGCCACUGCGCCCUGGGGGCCUGGGCUCUGCUGCCCUGGACCCCUCUAUUUAUUUCCCUUCAACAGAGGAUUGAGCAUCA
# Target: T1, UNK ZnF1-6 (called full-length)
# Experiment: nsRBNS (natural sequence RNA bind-n-seq); RBNS binding buffer (assumed for nsRBNS): 25 mM Tris pH 7.5, 150 mM KCl, 3 mM MgCl2, 0.01% Triton X-100, 500 ug/ml BSA, 20 U/ml SUPERase-In, 4 C; UNK is unkempt and MSI1 is Musashi-1; names of the RNAs are library labels; protein concentration not given here; high values mean tight binding
row,Binder,binding signal
1,B1,1.07 enrichment R
2,B2,9.58 enrichment R
3,B3,3.46 enrichment R
4,B4,0.976 enrichment R
5,B5,1 enrichment R
6,B6,0.458 enrichment R
7,B7,3.73 enrichment R
8,B8,0.819 enrichment R
9,B9,5 enrichment R
10,B10,0.402 enrichment R
11,B11,8.17 enrichment R
12,B12,2.3 enrichment R
13,B13,0.541 enrichment R
14,B14,8.52 enrichment R
15,B15,2.1 enrichment R
16,B16,2.35 enrichment R
17,B17,4.91 enrichment R
18,B18,1.19 enrichment R
19,B19,0.433 enrichment R
20,B20,1.63 enrichment R
21,B21,0.514 enrichment R
22,B22,0.764 enrichment R
